Measurements from PMC4336329 (PLoS ONE, 2015).
About 14,000 (4.5%) of roughly 310,000 compounds showed an effect of 50% or more. The effect is printed as a negative number. The list shows a part of the results.

What follows are compounds tested against human ether-à-go-go-related gene (hERG) potassium channel (human, UniProt Q12809) (assay: primary screen, population patch clamp on CHO cells stably expressing hERG).
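Also: peak tail current of the secondary pulse compared with the same well before compound.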

Chain of human ether-à-go-go-related gene (hERG) potassium channel (Q12809 whole entry, looked up): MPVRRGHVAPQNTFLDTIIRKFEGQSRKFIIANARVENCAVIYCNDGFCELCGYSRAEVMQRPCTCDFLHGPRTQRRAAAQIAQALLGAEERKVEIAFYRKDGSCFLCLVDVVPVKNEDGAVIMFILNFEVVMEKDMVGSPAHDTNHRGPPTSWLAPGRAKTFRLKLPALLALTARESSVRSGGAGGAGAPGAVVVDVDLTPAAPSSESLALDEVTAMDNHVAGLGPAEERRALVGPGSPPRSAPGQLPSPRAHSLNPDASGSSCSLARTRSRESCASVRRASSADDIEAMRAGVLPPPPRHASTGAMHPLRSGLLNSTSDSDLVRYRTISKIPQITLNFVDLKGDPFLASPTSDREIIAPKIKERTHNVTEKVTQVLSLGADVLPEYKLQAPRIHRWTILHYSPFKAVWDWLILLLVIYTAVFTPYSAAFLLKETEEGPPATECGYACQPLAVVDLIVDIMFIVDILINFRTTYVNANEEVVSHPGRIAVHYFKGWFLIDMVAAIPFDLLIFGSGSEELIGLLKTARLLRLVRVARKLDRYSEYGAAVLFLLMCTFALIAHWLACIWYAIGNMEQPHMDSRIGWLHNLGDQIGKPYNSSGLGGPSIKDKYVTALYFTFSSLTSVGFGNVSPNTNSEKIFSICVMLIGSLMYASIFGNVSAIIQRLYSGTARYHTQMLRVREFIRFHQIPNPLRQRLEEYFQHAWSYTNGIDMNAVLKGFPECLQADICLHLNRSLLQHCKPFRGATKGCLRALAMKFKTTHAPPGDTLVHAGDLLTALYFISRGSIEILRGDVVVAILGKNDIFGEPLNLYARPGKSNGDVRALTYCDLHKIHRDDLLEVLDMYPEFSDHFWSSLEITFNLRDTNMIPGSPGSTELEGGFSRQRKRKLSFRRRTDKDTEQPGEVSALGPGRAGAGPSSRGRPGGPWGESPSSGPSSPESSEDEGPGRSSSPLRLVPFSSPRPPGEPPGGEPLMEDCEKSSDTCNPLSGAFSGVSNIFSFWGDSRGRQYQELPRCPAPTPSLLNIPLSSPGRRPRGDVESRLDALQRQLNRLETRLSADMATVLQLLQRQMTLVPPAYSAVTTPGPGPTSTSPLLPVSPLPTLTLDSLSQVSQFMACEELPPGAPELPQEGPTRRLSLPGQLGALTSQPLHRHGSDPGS

Row | Compound | hERG current change (%, negative = inhibition) at 10uM [%]
1 | Cc1ccccc1NS(=O)(=O)c1csc(C(N)=O)c1 | 23.7
2 | O=[N+]([O-])c1ccc(OCCCOc2cccc3cccnc23)cc1 | -18.1
3 | COc1cccc([C@@H]2CC=C(C(=O)O)[C@H](c3ccc(Cl)cc3)N2S(=O)(=O)c2ccc(C)cc2)c1 | -3.21
4 | O=C(CSc1nc2ccccc2c(=O)[nH]1)Nc1ccc(N2CCOCC2)cc1 | 2.05
5 | Cc1cc(NC(=O)C2CCCN(S(=O)(=O)c3cnc[nH]3)C2)ccc1Br (stereo not drawn) | 15.4
6 | O=S(=O)(c1ccc2ccccc2c1)N1CCc2ccccc21 | 4.44
7 | CC(C)(C)OC(=O)N1CCC[C@H]1C(=O)N/N=C/c1cccc2cccnc12 | 6.67
8 | CC(CCc1ccccc1)NC(=O)c1ccc(Cl)nc1 (stereo not drawn) | -23.6
9 | OCCNc1ccc(Cl)cc1 | 10.4
10 | NC(=O)C[C@@H]1NC(=O)[C@H](CCC(=O)O)NC(=O)c2cc([N+](=O)[O-])cc(I)c2OCC[C@@H](C(N)=O)NC1=O | 13.1
11 | COc1ccc(NC(=O)CCn2nnc(-c3ccc(C)cc3)n2)cc1OC | 9.3
12 | Cc1ccc(C)c(NC(=O)CSc2n[nH]c(-c3ccccn3)n2)c1 | 10.8
13 | Cc1cccc(C(=O)Nc2nnc(S(=O)(=O)N3CCC(C)CC3)s2)c1 | 13.5
14 | CCN(CC(=O)NCc1cccs1)S(=O)(=O)c1cc(NC(C)=O)ccc1OC | -11.8
15 | COc1ccc(C2CC(=O)c3cnn(-c4nc(C)cc(C)n4)c3C2)cc1 (stereo not drawn) | -11.6
16 | Cc1ccc(C2/C(=C(/O)c3cnn(-c4ccccc4)c3C)C(=O)C(=O)N2CCN2CCOCC2)o1 (stereo not drawn) | 6.7
17 | CC1CCCCC1NC(=O)Cn1cc([N+](=O)[O-])ccc1=O (stereo not drawn) | 7.67
18 | C/C(=N\O)C(C)(C)Nc1cccc(F)c1 | 12.7
19 | CCOC(=O)N1CCN(CC(=O)Nc2c(C(=O)OC)[nH]c3cccc(Cl)c23)CC1 | 17
20 | CC(=O)c1cc(CN2CCN(C3CCCCC3)C(CCO)C2)cs1 (stereo not drawn) | -17.2
21 | S=C(NCc1ccccn1)Nc1ccc(Br)cc1Cl | 26.2

Row | Compound | hERG current change (%, negative = inhibition) at 10uM [%]
22 | O=C(c1c(Cl)nc2sccn12)N1CCN(c2cccc(Cl)c2)CC1 | -37.9
23 | Oc1ccccc1-n1nc2ccc3nonc3c2n1 | 24.4
24 | CCNS(=O)(=O)c1ccc(CCC(=O)Nc2cc(Cl)ccc2Oc2ccccc2)cc1 | -14.9
25 | C=CCOc1cccc(C2C(C(=O)c3ccc(C)o3)=C(O)C(=O)N2c2nnc(C)s2)c1 (stereo not drawn) | -2.99
26 | C(=N\Nc1nc(-c2ccccn2)nc2ccccc12)/c1ccccc1 | 12.3
27 | COC(=O)C1=C(C)OC(N)=C(C#N)C1c1ccc(OC)c(OC)c1OC (stereo not drawn) | -8.57
28 | COc1ccc(-c2nc3n(c(=O)c2C#N)CCS3)cc1 | -8.79
29 | Cc1ccc(CNC(=O)CN(Cc2cccs2)C(=O)C2(C)CC(=O)N=C3C=CC=CN32)cc1 (stereo not drawn) | 16.3
30 | O=C1c2cccc3cccc(c23)C(=O)N1c1nncs1 | 0.491
31 | COCCn1c(=S)[nH]c2cc(C(=O)N3CC(C)CC(C)C3)ccc2c1=O (stereo not drawn) | 20.2
32 | CC1(c2nnc(-c3ccccc3)o2)CC(c2ccc(Cl)cc2)=NO1 (stereo not drawn) | -2.27
33 | Cc1ccc(S(=O)(=O)Oc2ccc(/C=C(/NC(=O)c3ccccc3)C(=O)NCCC(=O)O)cc2)cc1 | 6.29
34 | Cc1ccc(O)c(CNn2cnnc2)c1 | -4.63
35 | O=c1oc2ccccc2cc1-c1cn(-c2ccccc2)c(=S)[nH]1 | 12.5
36 | Cc1cccc(C)c1NC(=O)C1(N(Cc2ccco2)C(=O)c2ccccn2)CCCC1 | 5.95
37 | CCOC(=O)Cc1csc(NC(=O)CN2CCN(CC)CC2)n1 | 15.8
38 | CN(CC(=O)Nc1ccccc1Cl)C(=O)c1ccccc1SCC(=O)N1CCCC1 | -10.5
39 | COc1cc(C(c2c(C(=O)O)[nH]c3ccccc23)c2c(C(=O)O)[nH]c3ccccc23)ccc1OCc1ccccc1 | 8.82
40 | CCN1/C(=C/C=C/C=C/c2sc3ccccc3[n+]2CC)Sc2ccccc21.[I-] | -78.9
41 | O=C(O)C1CCN(C(=O)c2ccc(Cl)cc2)CC1 | 12.4
42 | CC(=O)N(C)c1ccc(NC(=O)C(Sc2ccccc2)c2ccccc2)cc1 (stereo not drawn) | -14.4

Row | Compound | hERG current change (%, negative = inhibition) at 10uM [%]
43 | COCc1ccc(C(=O)NC2CC(C)(C)Cc3c2cnn3-c2ccc(OC)cc2)o1 (stereo not drawn) | -29.3
44 | CC(=O)c1c(C(C)=O)c(C)n(-c2cccc3cccnc23)c1C | 10.9
45 | Cc1c(C(=O)N2CCN(Cc3ccccc3)CC2)oc2c1C(=O)CCC2 | 0.625
46 | COC(=O)[C@@H](NCc1cccc(CN([C@H](C(=O)OC)C(C)C)S(C)(=O)=O)c1)C(C)C | 1.31
47 | CCOC(=O)c1c(NC(=O)CSc2nnc3c(n2)[nH]c2ccc(F)cc23)sc(C(C)=O)c1C | 9.12
48 | Cc1cc(=O)[nH]c(SCC(=O)N2CCCCCC2)n1 | 13.1
49 | Cc1cccc(CSCC(=O)NCc2ccc(S(N)(=O)=O)cc2)c1 | 21.4
50 | CC1(C)CC2CC(C)(CN2Cc2cccc([N+](=O)[O-])c2)C1 (stereo not drawn) | 16.7
51 | Cn1c2c(c(=O)n3ncnc13)CCCC2 | 13.1
52 | Cc1ccc(N(CC(=O)NCc2ccco2)C(=O)CNS(=O)(=O)c2ccc(F)cc2)c(C)c1 | -15
53 | COc1ccccc1OCc1cc(C(=O)N2CCN(C)C(c3ccccc3)C2)no1 (stereo not drawn) | -61.1
54 | COC(=O)CNC(=O)CCCCC(=O)NCC(=O)OC | 19.7
55 | COc1ccc(Cc2nnc(Cl)c3ccccc23)cc1OC | 14.9
56 | COc1cc(NS(=O)(=O)c2cc(C)ccc2OC)c(OC)cc1Cl | 7.42
57 | COC(=O)C(C)N(C(=O)c1ccc(Cl)cc1)c1c(C)cccc1C (stereo not drawn) | -15.2
58 | CCCC(=O)NCCCc1nc2ccccc2n1CCC | -9.27
59 | O=C(NCCCN1CCCCC1)C1(S(=O)(=O)c2ccc(Cl)cc2)CC1 | -32.3
60 | COc1ccc(C(=O)C2CCCN(C(=O)c3ccnn3C)C2)c(C)c1 (stereo not drawn) | 2.47
61 | Cc1ccccc1Cn1c(NC2CCCC2)nc2c1c(=O)[nH]c(=O)n2C | 10.9
62 | CN(C)C(=O)c1ccc(NC(=O)COC(=O)C2CCN(S(=O)(=O)c3ccc4c(c3)OCCO4)CC2)cc1 | 5.95
63 | COc1ccc(CCN(Cc2cccs2)S(=O)(=O)c2ccc(S(=O)(=O)N3CCCCCC3)cc2)cc1OC | 1.8

Row | Compound | hERG current change (%, negative = inhibition) at 10uM [%]
64 | CC(=O)c1ccc(NC(=O)/C=C/c2ccc(C)cc2)cc1 | -2.45
65 | O=C(CSc1nnc(-c2ccco2)n1-c1ccccc1)NCc1ccc2c(c1)OCO2 | -73.4
66 | CC(=O)c1ccc(NC(=O)C(C)n2nc(-c3ccccc3)c3cc(Cl)ccc32)cc1 (stereo not drawn) | -2.26
67 | C=C[C@H]1CN2CC[C@H]1C[C@@H]2[C@@H](O)c1ccnc2ccccc12 | -57.1
68 | CC(C)Cc1nc2oc3c(=O)[nH]cnc3c2c2c1CCC2 | -7.29
69 | COc1ccc(OC)c(/C=C/C(=O)c2ccc3c(c2)OCCO3)c1 | 5.09
70 | COc1ccc(NS(=O)(=O)c2cccc(C(=O)NNC(=O)CNC(=O)c3cccc(C)c3)c2)cc1 | -5.66
71 | CCC1(CC)C(=O)C2=C3C1[C@H](C(=O)OC)CC(C(=O)OC)C[C@H]3n1c(=O)n(-c3ccccc3)c(=O)n1[C@H]2C (stereo partly drawn) | -1.47
72 | O=C(CCc1ccc(O)c(O)c1)NNC(=S)Nc1ccc(Br)cc1Cl | 13.2
73 | CSc1nc2ccsc2c(=O)n1-c1cccnc1 | 17.4
74 | O=S(=O)(c1ccc(N2CCOCC2)nc1)N(Cc1ccccn1)Cc1ccccn1 | -1.83
75 | CN(c1ccccc1)S(=O)(=O)c1cccc(C(=O)Nc2ccc3c(c2)CCC3)c1 | -14
76 | CCn1c(O)c(/C=N/N2CCOCC2)c(=O)n(CC)c1=S | -5.37
77 | Cc1ccc(-c2nc3cc(Cl)ccc3o2)cc1 | 9.41
78 | COC(=O)c1ccccc1NC(=O)CSc1nnc(Cc2ccc(Cl)cc2)o1 | -39.3
79 | CCN(CC)C(=O)c1cccc(NC(=O)CC23CC4CC(CC(C4)C2)C3)c1 | 0.236
80 | Cc1ccc(C(=O)NCC(c2cccs2)N(C)C)cc1S(=O)(=O)N1CCOCC1 (stereo not drawn) | -1.32
81 | CCOc1ccc(NC(=S)NC(=O)/C=C/c2ccc(OC)c(OC)c2)c([N+](=O)[O-])c1 | 22.1
82 | Cc1sc2nc(CSCC(=O)N(CCC#N)c3ccccc3)[nH]c(=O)c2c1C | 0.34
83 | CC(=O)Oc1ccc2c(c1)C(=O)c1ccccc1C2=O | 15.2
84 | C#CCOCCOCCOCCNc1nc(N2CCN(C(=O)CCCCCCCCCCNC(=O)Cn3cc(C[C@@H](C)O)nn3)CC2)nc(N2CCN(C(=O)CCCCCCCCCCNC(=O)[C@H](CCCCN)n3cc(CCCC(=O)O)nn3)CC2)n1 | -1.72
